# In PubChem BioAssay AID485294 (National Center for Advancing Translational Sciences (NCATS), 2010):
# Screen size: about 370,000 compounds; about 150 (0.041%) were called active. Inconclusive results, whose numbers are uncertain, are shown with a selection of clear calls. Calls follow the shape of the dose curve; as a rule, active = well fitted inhibition curve with a large enough effect; inconclusive = small, poorly fitted or top-dose-only effect; inactive = flat fitted curve, though single readings scatter. Potencies of inconclusive entries are left out as doubtful fits.
# Biological target: Beta-lactamase (Escherichia coli (strain K12)) (UniProt P00811)
# Experiment: qHTS Inhibitors of AmpC Beta-Lactamase (assay with detergent); also: nearly all actives have a fitted effect of over 25% in size;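 as to activity change, negative = inhibition: 0% = no-compound wells and -100% = no-enzyme wells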
# Conditions: AmpC hydrolysis of nitrocefin, absorbance 480 nm, 0.01% Triton; activity change, negative = inhibition: at 114 µM (top of the series)
# Outline: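 AmpC (5.3 nM in the dispensed reagent) in 20 mM phosphate pH 7.0 with 0.01% (detergent screen) or 0.0001% Triton X-100 was preincubated with compounds for 15 min at room temperature. Nitrocefin was then added from an 800 uM solution, and hydrolysis was followed at 480 nm.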
# Potency is read from the fitted curve at half-maximal effect; tags tell the direction and shape of the fitted curve.
# Sequence of UniProt P00811 (P00811 whole entry, looked up): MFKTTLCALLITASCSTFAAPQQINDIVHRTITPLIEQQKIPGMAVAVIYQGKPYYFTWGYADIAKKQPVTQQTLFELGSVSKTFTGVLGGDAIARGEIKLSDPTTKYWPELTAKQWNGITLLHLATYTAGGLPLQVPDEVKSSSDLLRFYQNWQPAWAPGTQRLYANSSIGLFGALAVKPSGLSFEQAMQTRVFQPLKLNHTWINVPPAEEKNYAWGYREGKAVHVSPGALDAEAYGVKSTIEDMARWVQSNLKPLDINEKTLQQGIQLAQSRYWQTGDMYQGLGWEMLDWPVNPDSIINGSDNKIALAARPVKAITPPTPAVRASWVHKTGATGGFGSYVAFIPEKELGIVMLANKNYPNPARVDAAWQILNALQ
SMILES,Potency,"activity change, negative = inhibition"
Cc1csc2nc(O)c(C(=O)NCCN3CCOCC3)c(=O)n12,"inconclusive [inhibitor, full curve, poor fit]",–
O=C(CSc1nnc(-c2cccs2)n1-c1cccc(Cl)c1)c1cccc2c1OCCO2,–,inactive: -13.6%
Cc1ccccc1S(=O)(=O)Cc1ccc(C(=O)NCCN(Cc2ccccc2)C(C)C)o1,–,inactive: 2.16%
CO[C@H]1CC=C2CCN3CCC4=C(CC(=O)OC4)[C@]23C1,"inconclusive [inhibitor, full curve, poor fit]",–
Cc1cc(N2CCOCC2)n2nc(C)c(-c3ccc(Cl)cc3)c2n1,–,inactive: 0.0902%
O=C(NCC(=O)N1CCN(c2ccccc2)CC1)c1ccccc1,–,inactive: -4.11%
O=c1[nH][nH]cc1C=Nc1ccccc1Cl,"inconclusive [inhibitor, full curve, poor fit]",–
CCOc1ccc(C2CC(c3cccc(OC)c3)Nc3nc(N)nn32)cc1 (centres undefined),"inconclusive [inhibitor, full curve, poor fit]",–
O=C1CCC(C(=O)O)(c2ccccc2)C1 (centres undefined),"inconclusive [inhibitor, partial curve, poor fit]",–
COc1ccc(N2CCN(CCCNC(=O)c3ccc(CS(=O)(=O)c4ccc(Cl)cc4)o3)CC2)cc1,–,inactive: 2.44%
O=C(c1cccn1-c1nnc(N2CCCC2)s1)N1CCN(c2ccc(F)cc2)CC1,–,inactive: -2.18%
O=C(C(Cc1ccccc1)N1C(=O)C2C3C=CC(C3)C2C1=O)N1CCCCC1 (centres undefined),"inconclusive [inhibitor, full curve]",–
NS(=O)(=O)c1ccc(N=Cc2c(O)n(C3CCCCC3)c(=O)n(C3CCCCC3)c2=O)cc1,"inconclusive [inhibitor, partial curve, poor fit]",–
COc1ccc(Cl)cc1S(=O)(=O)N1CCC(c2ccncc2)CC1,–,inactive: 5.01%
C/C(=N\NC(=S)Nc1ccc(C)cc1)c1cccc(N)c1,–,inactive: 3%
COc1ccc(-c2ccc(-c3noc(-c4ccc(OC)c(OC)c4)n3)c(OC)n2)cc1,"inconclusive [inhibitor, full curve, poor fit]",–
CC1(C)Cc2c(sc3ncn4nnnc4c23)CO1,"inconclusive [inhibitor, full curve, poor fit]",–
CCOC(=O)C1=C(CSc2nc(-c3ccncc3)ccc2C#N)OC(N)=C(C#N)C1c1cccnc1 (centres undefined),"inconclusive [inhibitor, full curve, poor fit]",–
O=Cc1ccc(OCc2nnc(-c3ccccc3Br)o2)cc1,"inconclusive [inhibitor, partial curve, poor fit]",–
CC1CCN(C(=O)CCc2nnc(-c3ccccc3)o2)CC1,–,inactive: 1.5%
NC(=O)CC[C@@H]1NC(=O)[C@@H]2CCCN2C(=O)c2cc([N+](=O)[O-])cc(F)c2NCCC[C@@H](C(N)=O)NC1=O,"inconclusive [inhibitor, full curve, poor fit]",–
O=C(CSc1ncnc2sc3c(c12)CCC3)Nc1ccccc1C(=O)O,"inconclusive [inhibitor, partial curve]",–

SMILES,Potency,"activity change, negative = inhibition"
O=S1(=O)CCO[C@H]2Cc3ccccc3[C@H]2N1Cc1ccc(F)cc1,"inconclusive [inhibitor, partial curve, poor fit]",–
Cc1cccc(Cc2nnc(CCC(=O)N(C)Cc3ccncc3C)o2)c1,"inconclusive [inhibitor, single point]",–
CC(CCc1ccccc1)NC(=O)COC(=O)c1ccc(F)cc1 (centres undefined),"inconclusive [inhibitor, partial curve, poor fit]",–
Cc1cnc(C)c(N(C)NC(=S)Nc2ccccc2)n1,"inconclusive [inhibitor, single point]",–
O=C(OCC(=O)N1CCN(C(=O)c2ccco2)CC1)c1ccccc1Cc1ccccc1,"inconclusive [inhibitor, full curve, poor fit]",–
CC(C)C[C@H](NC(=O)c1[nH]cnc1C(=O)N[C@@H](Cc1ccccc1)C(=O)OCc1ccccc1)C(=O)OCc1ccccc1,"inconclusive [inhibitor, full curve]",–
COCCn1c(SCC(=O)N2CCCc3ccccc32)nc2c(c1=O)SC(C)C2 (centres undefined),"inconclusive [inhibitor, full curve]",–
O=C(CN1C(=O)C2CCCCC2C1=O)Nc1ccccc1N1CCCC1 (centres undefined),"inconclusive [inhibitor, partial curve, poor fit]",–
C/C(=N\NC(=O)c1ccc(N(C)C)cc1)c1cccnc1,"inconclusive [inhibitor, partial curve]",–
Cc1nn(-c2ccccc2)c2nc(C(F)(F)F)[nH]c(=O)c12,"inconclusive [inhibitor, single point]",–
CCC(NC(=O)Cc1c(C)c2ccc(OC)c(C)c2oc1=O)C(=O)NC(Cc1ccc(Cl)cc1)C(=O)O (centres undefined),"inconclusive [inhibitor, full curve]",–
CN1C(=O)CN=C(c2ccccc2Cl)c2cc(Br)ccc21,"inconclusive [inhibitor, full curve, poor fit]",–
CC(=O)c1ccc(S(=O)(=O)N2CCCc3ccccc32)cc1,"inconclusive [inhibitor, full curve, poor fit]",–
Nc1nnc(SCc2coc(-c3ccc(Cl)cc3)n2)s1,"inconclusive [inhibitor, full curve, poor fit]",–
O=C(c1cc(-c2cccc(Cl)c2)on1)N1CCCCCC1,"inconclusive [inhibitor, partial curve, poor fit]",–
COC(=O)C(OC(=O)c1ccc(OC)cc1)C(=O)OC,"inconclusive [inhibitor, partial curve, poor fit]",–
CCN(CC)C(=O)CN(Cc1ccccc1)S(=O)(=O)c1ccc(F)cc1,"inconclusive [inhibitor, full curve, poor fit]",–
Cc1ccc(NS(=O)(=O)N2CCOCC2)cc1,–,inactive: 4.61%
COc1ccc2c(c1)c(C(=O)CN1CCC3(CC1)OCCO3)c(C)n2Cc1ccccc1,"inconclusive [inhibitor, partial curve, poor fit]",–
O=C1CC(c2ccccc2)CC(=O)C1Sc1ccc(Cl)cc1 (centres undefined),–,inactive: -15%
CCOc1ccc(/C=N/NC(=O)c2ccccc2NC(=O)c2ccc(OC)cc2)cc1,–,inactive: -1.08%
O=C(Nc1ccccc1)N1CCc2scc[n+]2-c2ccccc21,"inconclusive [inhibitor, full curve, poor fit]",–

SMILES,Potency,"activity change, negative = inhibition"
C[C@H]([C@H](O)c1ccccc1)N(C)C(=O)CN,"inconclusive [inhibitor, full curve, poor fit]",–
COc1ccc(C2=CC(c3ccc(OC)c(OC)c3)n3nnnc3N2)c(OC)c1 (centres undefined),"inconclusive [inhibitor, full curve, poor fit]",–
CCCCOc1ccc(CN2CCN(CCO)CC2)cc1,"inconclusive [inhibitor, full curve]",–
CCN(CC(=O)NCc1ccc(F)cc1)C(=O)C(C)Oc1cccc(Cl)c1 (centres undefined),"inconclusive [inhibitor, full curve, poor fit]",–
CSc1ccccc1NC(=O)CSc1nncs1,–,inactive: -6.64%
C=CCOc1cccc(C2C(C(=O)c3ccco3)=C(O)C(=O)N2Cc2ccco2)c1 (centres undefined),–,inactive: 0.112%
COc1cccc(NC(=O)CSc2nnc(CNC(=O)c3ccco3)n2C)c1,"inconclusive [inhibitor, full curve, poor fit]",–
O=C1C2C3CCC(O3)C2C(=O)N1c1cc(OCC(F)F)cc([N+](=O)[O-])c1 (centres undefined),"inconclusive [inhibitor, single point]",–
O=C(OCC(O)CO)c1ccccc1Nc1ccnc2cc(Cl)ccc12 (centres undefined),"inconclusive [inhibitor, partial curve]",–
CCOc1ccccc1NC(=O)N1CCC2(CC1)OCCO2,"inconclusive [inhibitor, full curve]",–
O=C1C=C(c2ccccc2)C[C@H](c2cccs2)[C@H]1n1cnc([N+](=O)[O-])c1,"inconclusive [inhibitor, single point]",–
CC1=C(C(=O)N(C)CCC#N)C2(CCCCC2)OC1=O,"inconclusive [inhibitor, full curve]",–
CCOC(=O)C(C)On1c(-c2ccccc2)nc2ccc([N+](=O)[O-])cc21 (centres undefined),–,inactive: -8.51%
Cc1cc(C)c(NC(=S)NC(NC(=O)c2ccccc2)C(Cl)(Cl)Cl)c(C)c1 (centres undefined),"inconclusive [inhibitor, full curve]",–
C[C@H](CCC(=O)O)[C@H]1CC[C@H]2[C@@H]3[C@H](O)C[C@@H]4C[C@H](O)CC[C@]4(C)[C@H]3C[C@H](O)[C@]12C,"inconclusive [inhibitor, full curve]",–
Cn1c(=NC(=O)c2ccco2)sc2ccccc21,–,inactive: -2.04%
OCCN1CCN(CC(O)COc2ccc(-c3ccccc3)cc2)CC1 (centres undefined),"inconclusive [inhibitor, full curve, poor fit]",–
CCN1CCN(c2ccc(S(=O)(=O)N3CCCCC3)cc2NC(=O)Cc2ccccc2)CC1,"inconclusive [inhibitor, full curve, poor fit]",–
O=[N+]([O-])c1ccc(N/N=C/c2cccc(O)c2O)c(S(=O)(=O)N2CCOCC2)c1,–,inactive: -1.23%
C=C1C(=O)[C@@]23[C@H](O)C[C@@H]4C(C)(C)CC[C@H](O)[C@]4(C)[C@@H]2C[C@H](O)[C@@H]1[C@H]3O,"inconclusive [inhibitor, full curve, poor fit]",–
